In all, about 2,900 compounds were measured (“IRF Lucia reporter activity, fold change vs agonist alone”: median about 0.9, highest 2% from about 2.8 on). The list shows a part of the results.

Assay [1] has as its system RAW-Dual. The assay is described as follows: IRF Lucia reporter activity, fold change vs agonist alone; cytotoxicity flag (confluency mask): not cytotoxic; higher = enhanced IRF activity. The method in brief: (§1)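 Supernatant from RAW-Dual macrophages was read after 20 hours for IRF by QuantiLuc luminescence and for NF-κB by QuantiBlue absorbance at 620 nm. The cells (50,000 cells/well in DMEM, 384-well plates, 37 °C, 5% CO2) had received 50 nL of library stock by pin tool and, 1 h later, a PRR agonist. Reporter activity is expressed relative to agonist-alone wells as fold change, and wells were flagged cytotoxic if IncuCyte confluency was under 70% of agonist controls in both mask sets.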

Assay [2] has as its system RAW-Dual. Put plainly: IRF Lucia reporter activity, fold change vs agonist alone; higher = enhanced IRF activity. The note with it: library stock concentration (final ~1000-fold dilution): 10 mM, agonist: MPLA (TLR4) […]. The method in brief:
as §1

Assay [3] relates to RAW-Dual. Put plainly: IRF Lucia reporter activity, fold change vs agonist alone; cytotoxicity flag (confluency mask): cytotoxic (confluency <70% of control); higher = enhanced IRF activity. The essentials: as §1
Setting [4] is: agonist: 3'3'-cGAMP (STING) 10 ug/mL.
Where [5] appears, read: cytotoxicity flag (confluency mask): not cytotoxic.
[6] abbreviates: cytotoxicity flag (confluency mask): cytotoxic (confluency <70% of control).

With `O=C(NNS(=O)(=O)c1ccccc1F)c1cc(F)cc(-c2ccccn2)c1` (library stock concentration (final ~1000-fold dilution): 10 mM), the “IRF Lucia reporter activity” value in the assay on RAW-Dual [1] (setting [4]) turned out to be 1.17; in the assay on RAW-Dual [1] (agonist: LPS (TLR4) 0.1 ug/mL), 1.46.

As for `CCc1ccc(CCOc2ccc(CC3SC(=O)NC3=O)cc2)nc1.Cl` (centres undefined) (library stock concentration (final ~1000-fold dilution): 10 mM), the “IRF Lucia reporter activity” value came to 0.403 in the assay on RAW-Dual [1] (setting [4]) and 0.888 in the assay on RAW-Dual [1] (agonist: LPS (TLR4) 0.1 ug/mL).

As to `CCc1ccc(CCOc2ccc(CC3SC(=O)NC3=O)cc2)nc1.Cl` (centres undefined), the “IRF Lucia reporter activity” value in the assay with RAW-Dual [2] (setting [5]) worked out at 0.802.

In the case of `O=C1CCc2c(ccc3ccccc23)O1` (library stock concentration (final ~1000-fold dilution): 10 mM), the “IRF Lucia reporter activity” value in the assay on RAW-Dual [1] (setting [4]) was determined as 0.821; in the assay with RAW-Dual [1] (agonist: LPS (TLR4) 0.1 ug/mL), 0.991.

Take `C[C@@H]1O[C@@H](O[C@@H]2C(=O)c3c(O)cc(O)cc3O[C@H]2c2ccc(O)c(O)c2)[C@H](O)[C@H](O)[C@H]1O` (library stock concentration (final ~1000-fold dilution): 10 mM): the “IRF Lucia reporter activity” value in the assay with RAW-Dual [1] (setting [4]) amounted to 0.958; in the assay on RAW-Dual [1] (agonist: LPS (TLR4) 0.1 ug/mL), 1.18.

For the molecule `CN(CC(=O)N(Cc1ccc(C2CCCCC2)cc1)c1ccc(C(=O)NO)cc1)S(=O)(=O)c1c(F)c(F)c(F)c(F)c1F` (library stock concentration (final ~1000-fold dilution): 10 mM), the “IRF Lucia reporter activity” value in the assay on RAW-Dual [1] (setting [4]) came to 0.0198; in the assay with RAW-Dual [1] (agonist: LPS (TLR4) 0.1 ug/mL), 1.04.

On to `CCOc1cc(=O)[nH]cc1-c1ccc(CC(=O)Nc2cc(C(C)(C)C(F)(F)F)on2)c(F)c1` (library stock concentration (final ~1000-fold dilution): 10 mM), for which the “IRF Lucia reporter activity” value was 0.884 in the assay on RAW-Dual [1] (setting [4]) and 0.726 in the assay with RAW-Dual [1] (agonist: LPS (TLR4) 0.1 ug/mL).

For the molecule `Cc1c(OCC(F)(F)F)ccnc1C[S+]([O-])c1nc2ccccc2[nH]1` (centres undefined), the “IRF Lucia reporter activity” value in the assay on RAW-Dual [2] (setting [5]) is 0.944.

Turning to `Cc1c(OCC(F)(F)F)ccnc1C[S+]([O-])c1nc2ccccc2[nH]1` (centres undefined) (library stock concentration (final ~1000-fold dilution): 10 mM), the “IRF Lucia reporter activity” value with RAW-Dual [1] (setting [4]) came to 0.654; in the assay on RAW-Dual [1] (agonist: LPS (TLR4) 0.1 ug/mL), 1.23.

Regarding `CC(O)COCC1OC2OC3C(COCC(C)O)OC(OC4C(COCC(C)O)OC(OC5C(COCC(C)O)OC(OC6C(COCC(C)O)OC(OC7C(COCC(C)O)OC(OC8C(COCC(C)O)OC(OC1C(O)C2O)C(O)C8O)C(O)C7O)C(O)C6O)C(O)C5O)C(O)C4O)C(O)C3O` (centres undefined), in the assay with RAW-Dual [2] (setting [5]), the “IRF Lucia reporter activity” value worked out at 0.967.

As for `CC(O)COCC1OC2OC3C(COCC(C)O)OC(OC4C(COCC(C)O)OC(OC5C(COCC(C)O)OC(OC6C(COCC(C)O)OC(OC7C(COCC(C)O)OC(OC8C(COCC(C)O)OC(OC1C(O)C2O)C(O)C8O)C(O)C7O)C(O)C6O)C(O)C5O)C(O)C4O)C(O)C3O` (centres undefined) (library stock concentration (final ~1000-fold dilution): 10 mM), the results for the “IRF Lucia reporter activity” value in the assay with RAW-Dual [1] (setting [4]) and with RAW-Dual [1] (agonist: LPS (TLR4) 0.1 ug/mL) were 0.962 and 1.23, respectively.

Regarding `COc1cc2c(Oc3ccc4[nH]c(C)cc4c3F)ncnc2cc1OCCCN1CCCC1.O=C(O)/C=C\C(=O)O`, the “IRF Lucia reporter activity” value with RAW-Dual [2] (setting [6]) came out at 2.35.

As to `COc1cc2c(Oc3ccc4[nH]c(C)cc4c3F)ncnc2cc1OCCCN1CCCC1.O=C(O)/C=C\C(=O)O` (library stock concentration (final ~1000-fold dilution): 10 mM), the “IRF Lucia reporter activity” value in the assay on RAW-Dual [3] (setting [4]) came out at 0.783; in the assay on RAW-Dual [3] (agonist: LPS (TLR4) 0.1 ug/mL), 1.92.

In the case of `c1ccc(Cn2c(-c3ccc(OCC(C4CCNCC4)n4c(-c5ccccc5)nc5ccccc54)cc3)nc3ccccc32)cc1` (centres undefined) (library stock concentration (final ~1000-fold dilution): 10 mM), the entries for the “IRF Lucia reporter activity” value in the assay with RAW-Dual [1] (setting [4]) and with RAW-Dual [1] (agonist: LPS (TLR4) 0.1 ug/mL) were 0.0193 and 0.0422, respectively.

On to `c1ccc(Cn2c(-c3ccc(OCC(C4CCNCC4)n4c(-c5ccccc5)nc5ccccc54)cc3)nc3ccccc32)cc1` (centres undefined), for which, in the assay with RAW-Dual [2] (setting [5]), the “IRF Lucia reporter activity” value was 0.0524.

In the case of `CCOC(=O)c1ccc(N2NC(=O)/C(=C/c3ccc([N+](=O)[O-])o3)C2=O)cc1`, the “IRF Lucia reporter activity” value with RAW-Dual [2] (setting [5]) worked out at 0.414.

As for `CCOC(=O)c1ccc(N2NC(=O)/C(=C/c3ccc([N+](=O)[O-])o3)C2=O)cc1` (library stock concentration (final ~1000-fold dilution): 10 mM), the “IRF Lucia reporter activity” value with RAW-Dual [1] (setting [4]) stood at 0.527; with RAW-Dual [1] (agonist: LPS (TLR4) 0.1 ug/mL), 0.445.

Take `O=C(O)c1ccc(N2C(=O)/C(=C/c3ccc(-c4ccc([N+](=O)[O-])cc4)o3)C=C2c2ccccc2)cc1`: in the assay with RAW-Dual [2] (setting [5]), the “IRF Lucia reporter activity” value is 0.571.

As for `O=C(O)c1ccc(N2C(=O)/C(=C/c3ccc(-c4ccc([N+](=O)[O-])cc4)o3)C=C2c2ccccc2)cc1` (library stock concentration (final ~1000-fold dilution): 10 mM), the “IRF Lucia reporter activity” value is 0.168 in the assay on RAW-Dual [1] (setting [4]) and 0.439 with RAW-Dual [1] (agonist: LPS (TLR4) 0.1 ug/mL).

Take `Cc1ccc(C(=O)N(CCCN)C(c2nc3cc(Cl)ccc3c(=O)n2Cc2ccccc2)C(C)C)cc1` (centres undefined) (library stock concentration (final ~1000-fold dilution): 10 mM): the “IRF Lucia reporter activity” value in the assay with RAW-Dual [3] (setting [4]) is 0.119; with RAW-Dual [3] (agonist: LPS (TLR4) 0.1 ug/mL), 0.145.

Regarding `Cc1ccc(C(=O)N(CCCN)C(c2nc3cc(Cl)ccc3c(=O)n2Cc2ccccc2)C(C)C)cc1` (centres undefined), the “IRF Lucia reporter activity” value in the assay on RAW-Dual [2] (setting [6]) is 0.128.

As for `COc1cc(C(=O)N(CCCc2ccccc2)Cc2ccc(CC(=O)O)cc2)cc(OC)c1C` (library stock concentration (final ~1000-fold dilution): 10 mM), the “IRF Lucia reporter activity” value in the assay on RAW-Dual [1] (setting [4]) came to 1.45; with RAW-Dual [1] (agonist: LPS (TLR4) 0.1 ug/mL), 1.21.

For `O=C(O)c1cc(O)c2ccccc2n1`, in the assay on RAW-Dual [2] (setting [5]), the “IRF Lucia reporter activity” value was found to be 1.07.

`O=C(O)c1cc(O)c2ccccc2n1` (library stock concentration (final ~1000-fold dilution): 10 mM): the “IRF Lucia reporter activity” value came out at 0.998 in the assay with RAW-Dual [1] (setting [4]) and 1.3 in the assay with RAW-Dual [1] (agonist: LPS (TLR4) 0.1 ug/mL).
